This is one part of the list. At the low end of the ranking the order means little. Measured with an extract: partners may take part in the binding.
target: T1, HNF4alpha2 (COS-7 nuclear extract) (UniProt P41235); assay: protein-binding microarray; conditions: COS-7 nuclear extract on double-stranded Agilent 4x180k PBM; binding buffer, salt, pH and temperature not given; high values mean tight binding; double strand, one strand shown; sequences stand for … in …GCCTAGGGAGATTAGAGTATCGGTCGA
T1 sequence: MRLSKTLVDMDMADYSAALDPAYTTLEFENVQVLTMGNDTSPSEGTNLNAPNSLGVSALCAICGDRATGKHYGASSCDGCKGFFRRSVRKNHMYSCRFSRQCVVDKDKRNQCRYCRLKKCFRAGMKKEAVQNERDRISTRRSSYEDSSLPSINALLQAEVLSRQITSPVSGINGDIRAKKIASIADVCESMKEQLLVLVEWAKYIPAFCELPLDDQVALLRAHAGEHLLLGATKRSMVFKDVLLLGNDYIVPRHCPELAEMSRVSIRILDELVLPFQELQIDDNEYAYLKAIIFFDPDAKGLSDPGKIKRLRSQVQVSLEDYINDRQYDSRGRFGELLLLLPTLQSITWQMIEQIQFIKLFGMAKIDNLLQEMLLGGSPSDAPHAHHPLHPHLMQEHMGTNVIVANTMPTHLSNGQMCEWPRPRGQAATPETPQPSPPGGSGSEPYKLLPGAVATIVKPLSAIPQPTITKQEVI

Sequence | binding signal (log2 normalized intensity)
GCTCTGTGCCTTGTATTTCAAAACTGATAA | 0.942
GAGTTGAGTTGGAGAAGAGCAAAGATCATC | 1.72
ATGCTGGGGACCTTTGGCCTTTACCTGTTA | 4.54
GAACTTTTACCTAATGTTCACAATAAGAGG | 0.869
CTTGAGGCTGTCTGCTATGCAGAGCTCTTT | -1.08
GTCACTGCTCAAAAACACTCAGTTAATTAT | -1.14
CAGGGTTCATAGATGATAGTGATAAGGATC | 1.14
GTGAGCTGTCTAATTTTGCACAGCCAGCCT | -1.3
TACATGAGTGATCCTGAAAACAAATAGAGC | -1.18
CGCATCTTTTATAAGGGGCAGCAAACCTAC | -1.09
GACAAAGGCTTTGAGTCAACACACCTGTGG | -1.23
CATCTGAACTCTTCATGGACTCCTCTTATC | 1.6
AAGATAAAAATCAGAGATCAAGATACAGGT | -1.03
TTCAGCCGCTTTGAGGTCAATGGTAGAAAA | 1.48
AAGAGGAAAAAGTGGCTTTTTAGGAAACAT | 0.195
TGTTAGAATGTATTGAGAAGAAACCTTTGC | 1.9
CCTATACAGACCTTTGTATATTCCCTTTGT | 2.3
GAATCAAGGCAAGCCTTATCACTGTTTGGC | -0.852
GTTATCCCTAGGAAGGATAAGAGCAAGAAA | -1.15
CCAAAAACAAAACTGGTCATACAGCCTGAC | -1.15
CAGAGAGAGAGAGAGAATGACCCTTGCTTG | 3.01
AAGGGAGCACAACCCGGGCGCACAAGATGC | -1.14
AAGCAAGCTCTGCAATAGAGCCACATTCTG | -1.19
GGCTCAACGGGTTAGACGCACGGCAGAGCA | -0.989

Sequence | binding signal (log2 normalized intensity)
GAATTCTTGTCCAACTCCCCTCCCAAGGCA | 4.21
GCTGTGTGAAGTGACTTGCCCTGTTCACAT | 1.82
AGAGTTAATAACAGACCATGCCATGCATTT | -1.15
GGCTAGAAAAGAAGGATAGAGAGTTGGGAG | -1.14
CTTTCCACTCCCATTACTTCTGTTTGCATT | 1.45
GCCTGCAAGTTCAAAAGGACTCCCAGAGCA | -1.12
CCGTCCTGTCCTGGACTTTCCTTTGTTGGG | 2.3
GTGTTCAGAGCTTGCTGCATTCCCCCACCT | 4.21
CATGAGAGAAAAGAATAAAATTGTACTTCG | 1.02
CCAGGGTGAGAGGGACCCTTCCTCGGTGGA | -1.14
CCCTTGGAATGTGACCTTAGACCCCTGAAT | 5.74
ACCTCCCCTCTGACCAGAGACATTCCAACC | 1.43
CATGTAACCCCTTTTCAATTCCTTATCTCG | 1.04
CTAAGAGAAATCCACACAGCACTGACCTTT | 6.22
GATGATCAAAGGTCAGTCTTAGGACCACAT | 4.34
ATTAGAGAACATGTACTTTGTACTGCTTAT | 4.15
AAAGCGGCTCAGGAAACAGCGCTATCGGGG | -1.15
GACTATTTTATTTTCCCCCTTTGAAGTCTG | 3.02
ACTGCACTGTATCTTATCAGAAACACACCC | -0.299
GGCCTCTCCACTTGGGTATCAGATAGTCCA | 0.681
GGGTGTAAGAGTGAACTCTGACCATGCCTA | 3.07
CAGAAGCAATCACAAGGAATGCCCTTATCT | 0.818
AGATCCGAAGTCTAGGACGTTATCAGCAGG | 0.0613
CTTTGACACAGGCGACCTTCGCTCGGCTCG | 3.46

Sequence | binding signal (log2 normalized intensity)
ATAGGTTCTACTCTCCCCAGTTCAAAGGTT | 5.27
AAACAGAGGCTGAAATGGTTACAAAGGTCA | 4.72
TTTACAGAACTCTTCGAAGACACAAAGCTT | -1.11
AGTTTAAAGGCGTTTGCTCCCATCCCCCCA | 4.91
GCTTGGGGTGGGGTTGGAGTCCAGAGTTCA | 3.39
TGTGGACTGCTCCAGTGGACATTGGCCCTT | 6.04
TTTGAAAAGCTGTAGTGAACAAGTCTCCTT | -0.942
CACCCAAACCATCCCAGGCATCCAGGCCAG | -1.15
AGATTGCTAGCTGAGAGACTTTATCCGTAT | -0.541
TAGGATCTAGCAAATTTGGGAGGGAAGAGG | -1.08
GTTGAAGTTCCAGAAGACTACAAATTCCTC | -0.798
GGACTTTGTTGTTTGCCTCTGAAAACTTTT | 2.11
AGTGAACTGTCTGCTATGTGTATATGAGTG | 1.78
AGTCTGATTCTAGGGCCCATGCCCTTAGCC | 0.883
CCTAGATGAGATAAGGTTCTGATAAAGTAT | 0.511
GGTTCCTCAGAGGACCTGACATTCTCCACT | -0.989
CATGTGCATTTCACAATAGGGTTCAAACTC | 2.14
TGAGGGGACAAAGTTCGTGGAAAGTGGAAG | 2.34
ACAACATGAGTAAACGAGCTATTTAGATAA | -1.14
AAATACATAGCTGGGATGAGATACCCATTC | -1.12
CTTCACTGACGAAACTCACATACTGTGGAC | 0.966
GATGATTGTCCCTTTTCTATCCAGATGATC | 1.48
CTTGGACTCTGAAGGAATGTAAACTCCAAG | 0.219
ACCTCCCTGGGCATGTCTGCTCCCTGAGTT | 1.1

Sequence | binding signal (log2 normalized intensity)
ACCTCTTATCAAGCGTGCACCCCAGGTACG | 1.17
TAGGAATCTTCAAGGCCTACCTTGGGTTCT | 1.07
GTCCTATGACCCTGCCAAATCCCCCTCTGC | 4.58
CCCTCTGATATTGGGTGAGTGTTAGAGCAC | 0.74
ATAGCATGCCACGATGATTAGCTGACTTTA | -1.08
TGCTCAGGGAGAAGCAAATATGTGTCCTCT | 0.314
TGGCTTTTGCCCTCAAGGAGTTTTAGATTA | 1.21
TAGGCATGCAAACTTTGTTTAATGATTGCA | -0.637
TCACCTCGCTCCCCTCCTGTCAGTTTATTT | 2.2
TGCTCTTTATCAGCACCAAGAACAAACAAA | -1.26
CTGTGAATTCTTAAGCCAAAGTCCAAGTTG | 3.94
TTGTACAAAGGTCCTGTGGGGCCCAGAGCC | -0.258
GCCGGAAAAAGTGAGGAGCAGCAGAGAGTC | -1.24
CACACCTGGCTATTCAGTTTTTATTTTGTA | 0.589
CTTAGGCTTTTGCACTTTACTCAGAAAGGT | 2.52
AGTCATCCATCATTCATACATTTGCCTGAA | 0.634
CAAAGGACAGCAGTAGAAAACAGAGAAGCC | -1.21
TAGCCCTGCAGTGTATGACACAGCCACAAA | -1.17
GTGCTTAGTATGTGCTAGGCATTTTATAGT | 1.09
TAGCTTTAAAGACCAAAGATCACAGTGAAG | 2.11
AGTTCCAGAAGACTACAAATTCCTCAATCC | -1.1

Reference: publication PMC10726135
